Assay results from a collection of fitness landscapes (doi:10.1038/s41467-024-54723-y).
Whole data set: some 18,000 sequences, median “TetR repression strength (sort-seq, GFP reporter)” near 0.23, cut for the highest 2% near 0.68. The list shows a part of the results.

Target: TetR (class B, Tn10) (UniProt P04483)
Experiment: TetR repression strength (sort-seq, GFP reporter) (relative to tetO2 = 1); higher = stronger repression
Conditions: E. coli
In short: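 Repression strength was calculated by subtracting the read-weighted mean bin from the top bin index plus one and dividing by the unaltered operator's value. The plasmid library was low-copy in E. coli SIG10-MAX, with eight randomized operator positions between a constitutive promoter and sfGFP and constitutive TetR. Cultures grew 5 h at 37 °C in LB containing 50 µg/mL chloramphenicol before 10^6 cells were sorted by FACS into 13 fluorescence bins, each sequenced on Illumina. Three independent transformations were averaged for members having ≥30 reads in all replicates and a CV ≤0.5.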

UniProt P04483, sequence (P04483 whole entry): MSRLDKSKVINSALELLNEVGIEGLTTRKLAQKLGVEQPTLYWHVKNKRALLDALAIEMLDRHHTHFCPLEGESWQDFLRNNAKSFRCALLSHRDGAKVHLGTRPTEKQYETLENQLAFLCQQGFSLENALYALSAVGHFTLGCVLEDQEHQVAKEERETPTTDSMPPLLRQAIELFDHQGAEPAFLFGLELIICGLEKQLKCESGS

| Sequence | TetR repression strength |
| --- | --- |
| TCCCGGTAAGTAGAAGAGA | 0.32 |
| TCCCTGGTAGTGGGAGAGA | 0.212 |
| TCCCGGAGAGTTAGGGAGA | 0.15 |
| TCCCGCTTAGTACGTGAGA | 0.194 |
| TCCCGCGTAGTGGCGGAGA | 0.306 |
| TCCCTGAGAGTTAAGGAGA | 0.105 |
| TCCCGTTAAGTGTTGGAGA | 0.188 |
| TCCCGGCAAGTATGGGAGA | 0.351 |
| TCCCTTAAAGTAGGGGAGA | 0.0786 |
| TCCCGGATAGTAAGCGAGA | 0.164 |
| TCCCGGCCAGTGACGGAGA | 0.647 |
| TCCCAGTGAGTAGAGGAGA | 0.517 |
| TCCCAGGGAGTCGGCGAGA | 0.301 |
| TCCCTCCTAGTATGGGAGA | 0.42 |
| TCCCCTGAAGTGAGAGAGA | 0.352 |
| TCCCGCGAAGTGTTTGAGA | 0.197 |
| TCCCCGGAAGTATGAGAGA | 0.37 |
| TCCCTAATAGTGGGTGAGA | 0.159 |
| TCCCAGGGAGTTCGTGAGA | 0.16 |
| TCCCACTCAGTGACCGAGA | 0.488 |
| TCCCCACGAGTTAGGGAGA | 0.27 |
| TCCCTCCGAGTCCTGGAGA | 0.193 |
| TCCCAGGGAGTCTGCGAGA | 0.0813 |
| TCCCAGGTAGTGGTCGAGA | 0.202 |
| TCCCGATGAGTCTGGGAGA | 0.247 |
| TCCCAGGCAGTGAGAGAGA | 0.147 |

| Sequence | TetR repression strength |
| --- | --- |
| TCCCGTGAAGTAGTGGAGA | 0.0271 |
| TCCCCGGCAGTCGCAGAGA | 0.207 |
| TCCCCTCCAGTGTCCGAGA | 0.516 |
| TCCCTAGTAGTCATTGAGA | 0.331 |
| TCCCGAATAGTTGGTGAGA | 0.275 |
| TCCCGGGTAGTTCGAGAGA | 0.289 |
| TCCCGGACAGTACCGGAGA | 0.144 |
| TCCCAAGCAGTGTACGAGA | 0.182 |
| TCCCTGTCAGTATGGGAGA | 0.112 |
| TCCCGAAGAGTCTGGGAGA | 0.308 |
| TCCCTAGTAGTGAGCGAGA | 0.159 |
| TCCCCCACAGTGTGGGAGA | 0.156 |
| TCCCTGCGAGTGGACGAGA | 0.279 |
| TCCCCTGTAGTTGTGGAGA | 0.0499 |
| TCCCGGGGAGTTATCGAGA | 0.161 |
| TCCCGCATAGTAGCGGAGA | 0.394 |
| TCCCGTTGAGTGACGGAGA | 0.219 |
| TCCCAGTTAGTGCGGGAGA | 0.036 |
| TCCCCTCCAGTGAGTGAGA | 0.294 |
| TCCCAGAAAGTGAATGAGA | 0.211 |
| TCCCTGGGAGTTGGGGAGA | 0.211 |
| TCCCCTGTAGTTGTTGAGA | 0.346 |
| TCCCTAATAGTGGGAGAGA | 0.295 |
| TCCCTGGCAGTTGGTGAGA | 0.308 |
| TCCCCCATAGTGTCCGAGA | 0.29 |
| TCCCATATAGTGTACGAGA | 0.0769 |

| Sequence | TetR repression strength |
| --- | --- |
| TCCCTCTAAGTACATGAGA | 0.209 |
| TCCCTGACAGTCCCGGAGA | 0.354 |
| TCCCTAGCAGTGCGGGAGA | 0.174 |
| TCCCCTTTAGTTTCCGAGA | 0.378 |
| TCCCCGTGAGTCGGGGAGA | 0.459 |
| TCCCATCTAGTGGGGGAGA | 0.318 |
| TCCCACGTAGTCCAGGAGA | 0.23 |
| TCCCCGTAAGTGAATGAGA | 0.0898 |
| TCCCGTTTAGTGTGAGAGA | 0.322 |
| TCCCGGTTAGTCTGTGAGA | 0.373 |
| TCCCACCAAGTATTGGAGA | 0.207 |
| TCCCGGGCAGTATTGGAGA | 0.11 |
| TCCCACGTAGTGCCGGAGA | 0.213 |
| TCCCTAAAAGTTGAGGAGA | 0.206 |
| TCCCAGAGAGTCGCTGAGA | 0.195 |
| TCCCAAGGAGTAGGGGAGA | 0.0346 |
| TCCCTAGCAGTCTTTGAGA | 0.384 |
| TCCCCACAAGTGGACGAGA | 0.155 |
| TCCCGAAAAGTGGGGGAGA | 0.146 |
| TCCCAGGTAGTTACGGAGA | 0.276 |
| TCCCGTGAAGTCGGTGAGA | 0.138 |
| TCCCCGAGAGTATAAGAGA | 0.292 |
| TCCCGAATAGTGATTGAGA | 0.411 |
| TCCCCTGGAGTAATCGAGA | 0.354 |
| TCCCCGGCAGTAAAGGAGA | 0.232 |
| TCCCAAAAAGTGGAAGAGA | 0.199 |

| Sequence | TetR repression strength |
| --- | --- |
| TCCCGCTGAGTTCATGAGA | 0.0774 |
| TCCCGTCGAGTTTGAGAGA | 0.274 |
| TCCCGCCAAGTTAGGGAGA | 0.249 |
| TCCCCGTAAGTACAGGAGA | 0.368 |
| TCCCAGGAAGTGTGTGAGA | 0.0581 |
| TCCCCGCTAGTTGGAGAGA | 0.246 |
| TCCCATACAGTCGAAGAGA | 0.241 |
| TCCCGCAAAGTGAGTGAGA | 0.26 |
| TCCCTTCAAGTGTAAGAGA | 0.158 |
| TCCCCCGCAGTACCGGAGA | 0.146 |
| TCCCTCAAAGTTGGGGAGA | 0.133 |
| TCCCTGTCAGTCGCAGAGA | 0.188 |
| TCCCTGATAGTCCTTGAGA | 0.249 |
| TCCCGGCTAGTGAGGGAGA | 0.124 |
| TCCCCGCAAGTGATCGAGA | 0.139 |
| TCCCCGTTAGTGATCGAGA | 0.188 |
| TCCCTGTGAGTGTTGGAGA | 0.228 |
| TCCCCTATAGTTTAAGAGA | 0.335 |
| TCCCCTTGAGTGGGGGAGA | 0.258 |
| TCCCTCACAGTCGGCGAGA | 0.166 |
| TCCCAAATAGTAAGTGAGA | 0.203 |
| TCCCAAGGAGTGGCGGAGA | 0.108 |
| TCCCCGGCAGTGAAGGAGA | 0.0806 |
| TCCCACTCAGTTCTTGAGA | 0.356 |
